Assay results reported in the supplement of paper PMC10126150.
Values marked as one replicate rest on one cluster of the flow cell; about a third of the high ones do not repeat.

System: ATP
Assay: switch fluorescence ratio, 500 uM ATP over buffer (Cy3 cluster intensity, sum of 5 cycles each) (fold (ratio)); higher = stronger signal-on switching upon ATP binding; sequences stand for … in TCGTCGGCAGCGTCAGATGTGTATAAGAGACAGTTTTTTTTTTTTTTTTTTTTTTTTT…TC
Conditions: aptamer strand: ATP DNA aptamer (quencher-CACCTGGGGGAGTATTGCGGAGGAAGG + anchor), 100 nM annealed; ATP concentration: 500 uM; one replicate
Outline: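 The quencher-labelled ATP aptamer, at 100 nM, was annealed to Cy3-labelled switching-strand clusters on a modified Illumina MiSeq flow-cell. The clusters were imaged in selection buffer, then after 15 min with 500 uM ATP at 22 °C, and this buffer/ATP cycle ran five times with NaOH stripping and re-annealing between runs. Per-cluster fluorescence ratios, summed target-cycle over summed buffer-cycle Cy3 intensity, were averaged per switch-domain sequence. Clusters outside 100-1000 RFU were excluded.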
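Further: ATP exposure 15 min at 22 °C before imaging.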

Row | Sequence | switch fluorescence ratio
1 | AGTTGTTTAC | 0.983
2 | GCGACGTATT | 1.13
3 | ATATCCCGTT | 0.995
4 | GGGTCCCTAC | 1.26
5 | GAAATGGATA | 1.02
6 | TGATAATGTA | 1.02
7 | TGAAGCTGG | 0.979
8 | TCAATTTAAT | 0.926
9 | AGCTTTCATG | 0.962
10 | AGATTTGTCT | 0.968
11 | CGTCTAGGCG | 1.01
12 | GACTACCAGG | 1.84
13 | TGTTCGGTTA | 1.04
14 | CCTGTTATCA | 0.968
15 | AAAATACGAG | 1.12
16 | TTGGGGCGGC | 1
17 | TAGACATTTT | 1.01
18 | ATGGGATGGT | 1.02
19 | GGTTGGATT | 0.994
20 | TGGGTTGCGG | 1
21 | CTGAGGCGGT | 1.42
22 | GATTGTCTAT | 1.01
23 | ACACCAATGG | 1.02
24 | AGAGCCCAGG | 2.53
25 | GGCAGGCGTG | 1.01
26 | TTCATACATG | 1.03

Row | Sequence | switch fluorescence ratio
27 | CAAAGGAATT | 1
28 | TAGCCCATT | 0.986
29 | GTGACTCTCA | 0.99
30 | CCCGAACCTG | 1.07
31 | ACGTATCGGG | 1.03
32 | ACCCCTTCCC | 2.74
33 | CGTATATGAT | 1.04
34 | TCTATTAAA | 1.02
35 | CGAGGAGTG | 0.97
36 | ACTGAGCTCA | 1.07
37 | TAACTGACAT | 1.05
38 | AGTTGTGATG | 1.04
39 | ATATTGTTAG | 1.01
40 | GCCTCTGTGA | 1.45
41 | GTCGTTGGCT | 1.01
42 | AAGTGGTAGG | 0.959
43 | AAGATCTTGG | 0.97
44 | TTCGCTATAG | 3.91
45 | AATCAGTCAC | 1.03
46 | CCGGATGCGC | 1.75
47 | GAGGTCATCA | 1.04
48 | GTTCTTAGAA | 1.17
49 | TGTGACAA | 1.11
50 | GGGTTTCTAG | 1.04
51 | TGTGTAGAGC | 0.985
52 | CGAGCCATAG | 2.16

Row | Sequence | switch fluorescence ratio
53 | TTTATTACTA | 1.02
54 | TGCGGATTTA | 0.964
55 | AACGTATAAG | 1.03
56 | GTTGGGAGTG | 0.978
57 | ACGTTGCCGT | 0.97
58 | TATCCAACAA | 1.05
59 | ATGCGAATAC | 2.87
60 | CGTTACCATT | 0.993
61 | CAACTGTTCT | 0.994
62 | CGTAGGTTCT | 0.966
63 | AGTTTGTCGG | 0.995
64 | TCCCAGATTT | 1.21
65 | ACGCAATCAG | 6.03
66 | TATGGCAGGG | 0.976
67 | TTTCGGCCG | 1.16
68 | TCAGAATATA | 1
69 | AAATCCCGTG | 1.03
70 | GTTGGGCAC | 0.972
71 | GTGTCATGTA | 0.995
72 | CGCACGTACG | 1.79
73 | CGCTGTTGAG | 0.98
74 | TGGCAAAACT | 2.61
75 | TCTTCAGGGT | 0.984
76 | GGTTCAATAT | 1.02
77 | GCCTCGATTC | 1.07
78 | ATTGCGTTCT | 0.969

Row | Sequence | switch fluorescence ratio
79 | CGGCTTTGGG | 0.985
80 | GGTGTAGACG | 1.02
81 | ATGCGTGTCG | 1.02
82 | TTCGGGACTG | 0.936
83 | GGCAGATCAG | 0.993
84 | GTGAAGTTCC | 1.08
85 | AGCATGCTTA | 0.986
86 | GTTCAGGGTG | 1.22
87 | ATCGACCAAC | 1.21
88 | ATAGCCAAAT | 0.955
89 | TCGGTGTCAG | 1
90 | CGCGGACAAG | 1.03
91 | AGGAGGGCAA | 1.04
92 | TTACTTGAC | 1.12
93 | GCCACAGTTT | 1.01
94 | GTTGGTGGAG | 1.03
95 | AAACGGAAAT | 1.03
96 | TGCTGTTCAG | 0.998
97 | CCACGCTTGG | 1.04
98 | GACATGCCCT | 0.971
99 | GGGGCTGAGC | 1.02
100 | CTTATCCGGT | 1.02
101 | ATAGACGCGG | 0.995
102 | TAATATACC | 1.05
103 | GTAATAAGTA | 1.01
104 | GCGGTGTCGT | 0.992

Row | Sequence | switch fluorescence ratio
105 | TCAGTTGGCT | 0.982
106 | TGAAACGATT | 1.01
107 | CTTATCGCG | 1.02
108 | TGCCAATTAG | 1
109 | GCCATCGTTT | 0.942
110 | CTATGTATAA | 0.997
111 | CGGTCCTCAT | 0.992
112 | GAAGGACTGT | 1.15
113 | GGGGTATTC | 1.08
114 | GTCTATTCAG | 0.999
115 | AGACGGGGT | 0.957
116 | GCAGGACGGT | 1
117 | CTAAAAGTAA | 1.03
118 | CGGCTAATAT | 1.32
119 | GTTAATTTCA | 1.02
120 | GGGTTAACT | 1
121 | CGGACTGTGC | 1.02
122 | AAGAAAGTTG | 1.05
123 | TGGGGATG | 0.974
124 | ATAAACGGT | 0.979
125 | GGCGTGTGA | 0.998
126 | GCTAATTGCT | 0.979
127 | TAAGAGTTTG | 0.98
128 | ACCGGAGCCA | 2.63
129 | AACAAACTTC | 1.32
130 | CCGGGAAAGT | 0.974

Row | Sequence | switch fluorescence ratio
131 | TCCAACCACC | 1.27
132 | CCTGATGGTT | 0.996
133 | TAGGTTGGG | 0.95
134 | CTGAGGCATA | 3.12
135 | GAAGTATGT | 1.02
136 | AGTCAGCTGT | 0.953
137 | CATGGAAGAT | 0.997
138 | AGCATAGAA | 1.07
139 | CGGTTTAATG | 0.939
140 | ACAGAGACGG | 1.07
141 | AAAAGAGCGT | 0.954
142 | AATTTTCCTG | 1.02
143 | CCAAGTGGTC | 1
144 | GGCTTAGTAA | 1.03
145 | GTCTTTTAAT | 0.954
146 | AAACTAAGGA | 0.99
147 | TGCGCGCAGC | 0.989
148 | AGCGTCTTAT | 1.01
149 | GGGCATGAC | 1.03
150 | ACGGACGCA | 1.15
151 | CTAATGAACG | 1.05
152 | AACTAGTTTG | 1
153 | AATGGGGCAT | 0.992
154 | GGGCTAGTCC | 0.977
155 | TCCCGGCATC | 1.99
156 | AGAAATGGCG | 0.983

Row | Sequence | switch fluorescence ratio
157 | CACAAAAGAA | 0.984
158 | TATTGCTTAG | 0.988
159 | GTTAGCTCTG | 0.989
160 | GTGGGCATAC | 2.05
161 | GCGACTGCTG | 0.961
162 | GCCATAAAAT | 1
163 | ACTAAGGAAT | 1.1
164 | AGGGAGCCAA | 0.968
165 | TGGGTAGTCG | 0.996
166 | AATGTTTAAG | 0.98
167 | CATCCAGATT | 1.01
168 | TGCCTTATGA | 1.05
169 | GCTAGCCCGT | 0.973
170 | AGGTATCAAG | 1.04
171 | TTAAATCGT | 0.995
172 | TCGTCGTCCC | 1.05
173 | CCTGGATCCC | 1.2
174 | CATGAGACCT | 1.39
175 | TTTGTCGCTC | 1.01
176 | CTGCTAAAAC | 1.38
177 | TCCATTGTAG | 0.965
178 | AGAAGTAGGA | 1.01
179 | GATTTAATTC | 0.968
180 | TCGGCGTATA | 1.02
181 | TTAAGTAGGT | 0.973
182 | CCACTTTCCG | 1.13

Row | Sequence | switch fluorescence ratio
183 | GTATTTTATC | 0.941
184 | ATTTTTCATC | 0.99
185 | TGAGGCGAAC | 1.33
186 | GGCACGGTGC | 1.01
187 | TGTGACACAT | 1.02
188 | ATTTTTCGTC | 1.05
189 | CCATCCCTTG | 0.988
190 | TTGGTCGGTT | 0.982
191 | CGCGGCCACT | 1.07
192 | TTTAACGGGT | 0.978
193 | TAGAAAACTT | 1.02
194 | CGGTTATCTT | 1.03
195 | CAGACCTGTA | 1.08
196 | TACTAGCAGC | 1.14
197 | GAAGGGACAC | 1.07
198 | TTGGGCTAGA | 1.01
199 | GTTAGAAAAC | 1.05
200 | GAGAACGGAA | 1.05
201 | ACAGAGCTGG | 1.03
